Laboratory results published in PubChem BioAssay AID686970 (National Center for Advancing Translational Sciences (NCATS), 2013).
About 6,000 (1.7%) of roughly 360,000 compounds were called active. Inconclusive means that the source gave no clear call. Such entries were picked first, then a sample of the others. The call rests on the fitted dose curve; in most records, active means well fitted cell-killing curve with a large enough effect; inconclusive means small, poorly fitted or top-dose-only effect, or effect the other way; inactive means flat fitted curve, though single readings scatter. Potencies of inconclusive entries are left out as doubtful fits.

Experiment: qHTS for induction of synthetic lethality in tumor cells producing 2HG: qHTS for the HT-1080-NT fibrosarcoma cell line;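 further: NT is the 2HG producing partner of a matched IDH1 knockdown line; nearly all actives have a fitted effect of over 55% in size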;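 on activity, negative = less viability: 0% = DMSO-treated cells and -100% = media-only wells without cells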
Conditions: HT-1080-NT fibrosarcoma viability, CellTiter-Glo ATP luminescence, 48 h; activity, negative = less viability: at 46.1 µM (top of the series) unless noted
Procedure, shortened: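 750 cells/well, RPMI + 5% FBS; 2 h settle, compound pin-transfer, 48 h at 37 degrees C. CellTiter-Glo 10 min RT, luminescence. Normalized to DMSO and media-only wells.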
Potency means the concentration at half of the fitted maximal effect; tags describe the fitted curve by direction and shape.

For `COc1cc2c(cc1NC(=O)CSc1nc3ccccc3[nH]1)oc1ccccc12`, which Potency is on record?
The Potency was inconclusive [cytotoxic, single point].

With `COCCCNC(=O)c1cc(C(=O)c2c(-c3c(Cl)cccc3Cl)noc2C)c[nH]1` as the compound, how does the Potency read?
The Potency was inconclusive [cytotoxic, partial curve].

For `CCOc1cc(NS(=O)(=O)c2ccc(OC)cc2)c(OCC)cc1NC(=O)c1ccco1`, which Potency is on record?
Its Potency is inconclusive [cytotoxic, single point].

With `N#Cc1ccc(/C=C/C(=O)c2ccccc2)cc1` as the compound, how does the Potency read?
The Potency was inconclusive [cytotoxic, single point].

For `O=C(CN1CCN(c2ccccc2O)CC1)Nc1ccc2c(c1)OCCCO2`, which activity, negative = less viability is on record?
Its activity, negative = less viability is inactive: 2.08% [at 9.24 µM].

Which Potency does the source give for `COc1ccc(NC(=O)CSc2nnc(-c3cccs3)n2-c2ccccc2)cc1` here?
The Potency was active: 23.1 µM.

Which Potency does the source give for `COc1ccc(OC)c(NC(=O)CN(c2ccc(C(C)C)cc2)S(=O)(=O)c2c(C)noc2C)c1` here?
Its Potency is inconclusive [cytotoxic, single point].

For `CC1(C)COC(c2ccc3c(c2)OCO3)OC1`, which “activity, negative = less viability” value is on record?
The value was inactive: -1.89%.

With `CN(C)CCCNC(=S)Nc1ccc(-c2ccccc2)cc1` as the compound, how does the Potency read?
The Potency was active: 20.6 µM.

For `COc1cccc(NC(=O)N(C)C[C@@H]2OCc3cnnn3CCCC(=O)N([C@@H](C)CO)C[C@H]2C)c1`, which “activity, negative = less viability” value is on record?
Its value is inactive: 5.76%.

With `COc1cccc(/C=C2\SC(=O)N(CCC(=O)NNC(=O)c3ccccc3Cl)C2=O)c1` as the compound, how does the Potency read?
Its Potency is inconclusive [cytotoxic, single point].

Which Potency does the source give for `CC(=O)Oc1ccc(-c2csc(Nc3cccc(C)n3)n2)cc1` here?
Its Potency is inconclusive [cytotoxic, single point].

With `COc1c(C)cc(C(O)c2ncc(-c3ccccc3F)[nH]2)cc1C` (stereo not drawn) as the compound, how does the Potency read?
The Potency was inconclusive [cytotoxic, single point].

For `O=C(CCCl)Nc1nc2c(s1)CCc1ccccc1-2`, which Potency is on record?
Its Potency is active: 9.2 µM.

For `Cc1cccc2c1NC(=O)C2(c1ccc(O)cc1)c1ccc(O)cc1`, which Potency is on record?
Its Potency is active: 0.0082 µM.

For `COc1ccc(S(=O)(=O)N2CCC(C(=O)N[C@H](C(=O)NCc3ccccc3)C(C)C)CC2)cc1`, which “activity, negative = less viability” value is on record?
The value was inactive: 12.7%.

With `OC(COc1ccc(CNCCc2ccc(C(F)(F)F)cc2)cc1)CN1CCCCC1` (stereo not drawn) as the compound, how does the Potency read?
The Potency was active: 23.1 µM.

Which activity, negative = less viability does the source give for `CN(C)S(=O)(=O)c1cccc(-c2nn(-c3ccccc3)cc2/C=C(/C#N)C(=O)NCc2ccco2)c1` here?
Its activity, negative = less viability is inconclusive: -46.7% [cytotoxic].

Which Potency does the source give for `O=C(CN1C(=O)/C(=C\c2ccccc2F)SC1=S)Nc1nc2ccccc2s1` here?
Its Potency is inconclusive [rising, single point].

Which Potency does the source give for `CCOC(=O)c1c(N)sc(C(O)(C(F)(F)F)C(F)(F)F)c1-c1ccc(Cl)cc1` here?
The Potency was inconclusive [cytotoxic, single point].

With `COC(=O)[C@]12CCCCC=C1N(Cc1ccc(Cl)cc1Cl)C(=O)[C@H](CC(=O)NCCc1ccccc1OC)C2` as the compound, how does the Potency read?
The Potency was inconclusive [cytotoxic, single point].

With `CCCc1ccc(-c2cc(C(=O)N/N=C/c3ccc([N+](=O)[O-])o3)c3ccccc3n2)cc1` as the compound, how does the Potency read?
The Potency was active: 7.31 µM.

With `COc1ccc(OCC(NS(=O)(=O)c2ccc(-n3cnnn3)cc2)C(C)C)cc1` (stereo not drawn) as the compound, how does the activity, negative = less viability read?
Its activity, negative = less viability is inconclusive: -7.96% [cytotoxic].

Which Potency does the source give for `CC(C)(C)[C@H](N)C(=O)N[C@H]1CCC2C3CC=C4C[C@@H](O)CC[C@]4(C)C3CC[C@@]21C` (stereo partly drawn) here?
The Potency was inconclusive [cytotoxic, single point].

For `COc1ccc(NC(=O)NCc2ccc3c(c2)OCO3)cc1OC`, which Potency is on record?
The Potency was inconclusive [cytotoxic, single point].

Which “activity, negative = less viability” value does the source give for `CN1/C(=C/C=N/NC(=O)c2ccc([N+](=O)[O-])cc2)C(C)(C)c2ccccc21` here?
The value was inactive: 11.1%.

With `CCc1nnc(NC(=O)CC23CC4CC(CC(Br)(C4)C2)C3)s1` as the compound, how does the “activity, negative = less viability” value read?
The value was inactive: 9.92%.

With `Cc1nn(C)cc1C(=O)/C=C/c1ccc([N+](=O)[O-])cc1` as the compound, how does the Potency read?
Its Potency is active: 23.1 µM.

For `Cc1ccc(-c2ccc(=O)n(Cc3ccc(F)cc3Cl)n2)cc1`, which Potency is on record?
The Potency was inconclusive [cytotoxic, single point].

With `COc1cc([C@@H]2C[C@H]3CN(c4ccccc4)C(=O)[C@]34CCCN24)cc(OC)c1OC` as the compound, how does the “activity, negative = less viability” value read?
The value was inactive: 8.59%.

For `O=C(c1ccc(Cl)c([N+](=O)[O-])c1)N1CCN(c2ccccc2)CC1`, which Potency is on record?
Its Potency is inconclusive [cytotoxic, single point].

With `O=C(/C=C/c1ccccc1)NC(=S)Nc1ccc(N2CCOCC2)cc1` as the compound, how does the Potency read?
Its Potency is active: 7.94 µM.

For `Cc1ccc(NC(=S)N2CCCCC2CO)cc1C` (stereo not drawn), which activity, negative = less viability is on record?
The activity, negative = less viability was inconclusive: 31.4%.

For `O=C(CNC(=O)/C(=C\c1ccc(Br)cc1)NC(=O)c1ccccc1)OCc1ccccc1`, which Potency is on record?
The Potency was inconclusive [cytotoxic, single point].

Which “activity, negative = less viability” value does the source give for `O=C(NCC1CCOCC1)c1ccc(-c2ccc(F)c(F)c2)c2ccoc12` here?
Its value is inactive: -16.4%.

With `COc1ccc(-c2nc3c4ccccc4ccn3c2Cc2ccccc2)cc1OC` as the compound, how does the Potency read?
The Potency was inconclusive [cytotoxic, single point].

Which Potency does the source give for `O=S(=O)(c1cnc(Cl)c(Cl)c1)N1CCCc2ccccc21` here?
The Potency was inconclusive [cytotoxic, single point].

With `CN(C)CCCNC(=O)c1ccc(-c2nc(-c3ccc(Cl)cc3)cs2)cc1` as the compound, how does the “activity, negative = less viability” value read?
Its value is inactive: -25.9%.

For `Cc1cc(C(=O)COC(=O)C2=NNC(=O)CC2)c(C)n1-c1ccc(OC(F)F)cc1`, which “activity, negative = less viability” value is on record?
The value was inactive: -2.06%.

For `O=C(COC(=O)CCS(=O)(=O)c1ccc(F)cc1)NC1CCCCC1`, which “activity, negative = less viability” value is on record?
The value was inactive: -10.2%.

With `O=c1c(-c2ccc(O)cc2)coc2cc(OC3OC(CO)C(O)C(O)C3O)cc(O)c12` (stereo not drawn) as the compound, how does the Potency read?
Its Potency is inconclusive [rising, single point].

Which “activity, negative = less viability” value does the source give for `O=C(NC(Cc1ccccc1)C(=O)O)NC12CC3CC(CC(C3)C1)C2` (stereo not drawn) here?
Its value is inactive: -2.09%.

With `Cc1csc(SCc2nnc(-c3ccccc3Br)o2)n1` as the compound, how does the “activity, negative = less viability” value read?
The value was inactive: -6.25%.

With `COc1ccccc1Nc1c2ccccc2nc2ccccc12` as the compound, how does the Potency read?
Its Potency is active: 16.4 µM.

With `CCN(CC)c1ccc(C(=C2C=CC(=[N+](CC)CC)C=C2)c2ccc(S(=O)(=O)O)cc2S(=O)(=O)[O-])cc1` as the compound, how does the Potency read?
The Potency was active: 23.1 µM.

With `Cc1ccc(CN(CC(O)COc2cccc3[nH]cc(C)c23)C(C)(C)C)cc1` (stereo not drawn) as the compound, how does the Potency read?
The Potency was inconclusive [cytotoxic, single point].

For `CCSC1=NC(C)(C)C=C(/C=C/c2ccc(Cl)cc2Cl)N1`, which Potency is on record?
The Potency was active: 16.4 µM.

Which “activity, negative = less viability” value does the source give for `O=C(N/N=C/c1ccc(Br)cc1)c1ccc(NC(=O)c2ccccc2)cc1` here?
The value was inactive: 5.87%.

With `CCC(CC)NC(=O)c1cc2c(C)nn(Cc3ccccc3Cl)c2s1` as the compound, how does the “activity, negative = less viability” value read?
The value was inactive: -29.6%.

Which Potency does the source give for `CS(=O)(=O)N(CC(O)Cn1c2ccccc2c2ccccc21)c1cccc2ccccc12` (stereo not drawn) here?
The Potency was active: 18.4 µM.

With `Cc1cccn2c(=O)c3cc(S(=O)(=O)c4ccc(F)cc4)c(=N)n(Cc4ccco4)c3nc12` as the compound, how does the Potency read?
Its Potency is inconclusive [cytotoxic, partial curve, poor fit].

With `O=[N+]([O-])c1ccc(-c2nc3ccc([N+](=O)[O-])cc3[nH]2)cc1` as the compound, how does the Potency read?
The Potency was inconclusive [cytotoxic, single point].

Which Potency does the source give for `O=CNc1cc(-c2ccccc2Oc2ccccc2)cn2c(-c3ccc(F)cc3)cnc12` here?
Its Potency is inconclusive [cytotoxic, partial curve].

Which “activity, negative = less viability” value does the source give for `CC(=O)OCC(OC(C)=O)C(OC(C)=O)C(OC(C)=O)C(=O)Nc1ccccc1` (stereo not drawn) here?
The value was inactive: -4.19%.

Which activity, negative = less viability does the source give for `CC1(C)CC(=O)C(C=Nc2ccc3c(c2)OCO3)=C(O)C1` here?
The activity, negative = less viability was inconclusive: -32.9% [cytotoxic].

Which Potency does the source give for `CN(CCC(=O)Nc1ccc(Cl)cc1)Cc1ccccc1` here?
The Potency was active: 20.6 µM.

Which “activity, negative = less viability” value does the source give for `OCc1nc2ccccc2n1CC(O)COc1ccccc1` (stereo not drawn) here?
The value was inactive: 1%.

With `Cc1cc(C)cc(NS(=O)(=O)c2ccc3c(c2)c(=O)n(C)c(=O)n3C)c1` as the compound, how does the Potency read?
Its Potency is active: 6.31 µM.

With `CC1(C)CC2(C)OC(=N)C1(C#N)C2(C#N)C#N` (stereo not drawn) as the compound, how does the Potency read?
The Potency was inconclusive [cytotoxic, single point].

Which Potency does the source give for `CN(C)CCOc1ccc(-c2c(-c3ccsc3)sc3ccccc23)cc1` here?
Its Potency is inconclusive [cytotoxic, single point].

Which activity, negative = less viability does the source give for `C=C(C)CNC(=S)N/N=C\c1ccc2c(c1)OCO2` here?
The activity, negative = less viability was inconclusive: 30.2%.

With `O=C(Nc1ncc2c(n1)-c1ccccc1CC2)c1cccc(Cl)c1` as the compound, how does the Potency read?
Its Potency is inconclusive [cytotoxic, single point].

Which “activity, negative = less viability” value does the source give for `CCN(CC)S(=O)(=O)c1ccc(N2CCN(S(=O)(=O)c3ccccc3)CC2)nc1` here?
The value was inactive: -24.5%.

Which Potency does the source give for `c1ccc2c(CSc3nnc(-c4ccncc4)o3)cccc2c1` here?
Its Potency is inconclusive [cytotoxic, single point].

With `CN(CC1CCOCC1)C(=O)CC1C(=O)NCCN1Cc1cccc(F)c1` (stereo not drawn) as the compound, how does the Potency read?
The Potency was inconclusive [rising, single point].

With `CC(C)CNS(=O)(=O)c1cc(C(=O)OCC(=O)N(C)C2CCS(=O)(=O)C2)c(Cl)cc1Cl` (stereo not drawn) as the compound, how does the Potency read?
Its Potency is inconclusive [cytotoxic, single point].

For `Cc1cccc(S(=O)(=O)NC(=O)C2(C)CCN2C(=O)C2(c3ccc(Cl)cc3)CCC2)c1` (stereo not drawn), which “activity, negative = less viability” value is on record?
Its value is inactive: -0.743%.

With `c1ccc(COc2ccc(OCCCN3CCCCC3)cc2)cc1` as the compound, how does the “activity, negative = less viability” value read?
Its value is inactive: -27%.

Which Potency does the source give for `COc1cc(C2Oc3ccccc3C=C2[N+](=O)[O-])cc(OC)c1OC` (stereo not drawn) here?
The Potency was active: 5.8 µM.

For `Cc1cc(C)c(S(=O)(=O)Nc2ccc3c(c2)CCC3)c(C)c1`, which Potency is on record?
The Potency was active: 23.1 µM.

For `C=C1CC2(CC(c3ccccc3)OC(c3ccccc3)C2)OC1=O` (stereo not drawn), which Potency is on record?
Its Potency is inconclusive [cytotoxic, single point].

Which Potency does the source give for `COc1ccc(C(=O)/C=C/c2ccc(OC3CSC3)cc2)cc1OC` here?
The Potency was inconclusive [cytotoxic, single point].

With `COc1cc(OC)c(OC)cc1/C=C1\CCC/C(=C\c2cc(OC)c(OC)cc2OC)C1=O` as the compound, how does the Potency read?
The Potency was inconclusive [cytotoxic, partial curve, poor fit].
